In all, about 310,000 compounds went through this assay and about 14,000 (4.5%) showed an effect of 50% or more. Effects have a minus sign here. The list shows a part of the results.
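Also: peak tail current of the secondary pulse compared with the same well before compound.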

The target in this test is human ether-à-go-go-related gene (hERG) potassium channel (human, UniProt Q12809). The test is described as follows: primary screen, population patch clamp on CHO cells stably expressing hERG.
Chain of human ether-à-go-go-related gene (hERG) potassium channel (Q12809 whole entry, looked up): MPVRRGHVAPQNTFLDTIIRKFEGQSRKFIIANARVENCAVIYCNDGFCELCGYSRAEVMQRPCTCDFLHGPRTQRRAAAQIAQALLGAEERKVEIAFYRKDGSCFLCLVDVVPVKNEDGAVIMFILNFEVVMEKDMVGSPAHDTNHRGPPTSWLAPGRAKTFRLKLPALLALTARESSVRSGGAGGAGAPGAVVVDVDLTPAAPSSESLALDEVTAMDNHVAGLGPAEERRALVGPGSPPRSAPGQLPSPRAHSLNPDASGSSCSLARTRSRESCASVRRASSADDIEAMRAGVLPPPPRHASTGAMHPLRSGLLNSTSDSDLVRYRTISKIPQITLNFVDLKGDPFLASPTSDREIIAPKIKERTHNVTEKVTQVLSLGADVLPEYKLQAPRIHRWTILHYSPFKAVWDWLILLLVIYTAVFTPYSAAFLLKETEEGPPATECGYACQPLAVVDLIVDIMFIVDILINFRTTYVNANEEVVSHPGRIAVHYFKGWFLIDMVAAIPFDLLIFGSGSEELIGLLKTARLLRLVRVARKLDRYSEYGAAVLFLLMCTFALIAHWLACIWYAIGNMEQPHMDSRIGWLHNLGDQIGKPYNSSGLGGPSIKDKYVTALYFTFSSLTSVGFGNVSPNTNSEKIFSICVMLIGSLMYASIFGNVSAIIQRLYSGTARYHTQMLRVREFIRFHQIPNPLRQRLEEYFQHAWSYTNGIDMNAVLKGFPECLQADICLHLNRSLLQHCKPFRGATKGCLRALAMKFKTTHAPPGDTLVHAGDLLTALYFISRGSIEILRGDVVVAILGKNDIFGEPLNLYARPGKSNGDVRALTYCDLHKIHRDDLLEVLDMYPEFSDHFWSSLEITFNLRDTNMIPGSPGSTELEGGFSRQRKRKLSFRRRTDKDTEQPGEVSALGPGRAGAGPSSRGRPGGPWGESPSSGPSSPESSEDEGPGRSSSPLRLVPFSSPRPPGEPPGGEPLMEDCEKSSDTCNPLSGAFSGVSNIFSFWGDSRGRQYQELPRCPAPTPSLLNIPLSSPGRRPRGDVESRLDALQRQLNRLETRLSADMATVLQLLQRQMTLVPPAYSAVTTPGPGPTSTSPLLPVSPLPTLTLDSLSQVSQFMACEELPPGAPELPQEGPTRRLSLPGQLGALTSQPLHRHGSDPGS
Consider `Cc1ccc(C)c(S(=O)(=O)N2CCN(CC(=O)Nc3cc(C)on3)CC2)c1`, for which the “hERG current change (%, negative = inhibition) at 10uM” value was -12.6%.

On to `Cc1ccc(S(=O)(=O)Nc2ccc(S(=O)(=O)N3CCOCC3)cc2)cc1`, for which the “hERG current change (%, negative = inhibition) at 10uM” value came out at 3.78%.

`Cc1cc(-c2ccc(Cl)cc2Cl)c(C#N)c(=O)[nH]1`: the “hERG current change (%, negative = inhibition) at 10uM” value is given as -2.97%.

On to `c1ccc(-c2nn3c(Cn4cnc5ccccc54)nnc3s2)cc1`, for which the “hERG current change (%, negative = inhibition) at 10uM” value is recorded as -7.78%.

Consider `CC(NS(=O)(=O)c1ccccc1)C(c1cccs1)N1CCN(C)CC1` (centres unmarked), for which the “hERG current change (%, negative = inhibition) at 10uM” value was determined as 5.5%.

Turning to `CCCCNC(=S)Nc1ccc(Oc2ccccc2)cc1`, the “hERG current change (%, negative = inhibition) at 10uM” value is on record as 1.82%.

As to `COCCn1c(SCC(=O)N2CCCCCC2)nnc1-c1ccco1`, the “hERG current change (%, negative = inhibition) at 10uM” value came out at 18.2%.

On to `Cc1ccc(-n2c(SCc3ccc(C#N)cc3)nnc2-c2ccccn2)cc1`, for which the “hERG current change (%, negative = inhibition) at 10uM” value is -48.7%.

As for `CN(C)S(=O)(=O)c1cccn1-c1ncc(C(F)(F)F)cc1Cl`, the “hERG current change (%, negative = inhibition) at 10uM” value is listed as -10.4%.

For `COC(=O)Nc1c(-c2ccccc2)nc2ccccn12`, the “hERG current change (%, negative = inhibition) at 10uM” value was determined as 0.337%.

Consider `Cc1nc(SCC(=O)O)c(C#N)c(C)c1CC(=O)c1ccccc1`, for which the “hERG current change (%, negative = inhibition) at 10uM” value is reported as 21.3%.

On to `NC(=S)N/N=C/c1ccccc1O`, for which the “hERG current change (%, negative = inhibition) at 10uM” value stood at 14.5%.

In the case of `CCOC(=O)N1C2=NC(C(=O)OC)=C(C(=O)OC)[C@@H]3N(C)c4ccc(OC)cc4[C@]23C[C@H]1C(=O)OC`, the “hERG current change (%, negative = inhibition) at 10uM” value stood at 6.52%.

On to `CC(C)N1CCc2c(sc(NC(=O)c3ccc(S(=O)(=O)N4CCc5ccccc54)cc3)c2C(N)=O)C1.Cl`, for which the “hERG current change (%, negative = inhibition) at 10uM” value is recorded as -27.3%.

Consider `COc1ccc(CCNC(N)=S)cc1OC`, for which the “hERG current change (%, negative = inhibition) at 10uM” value worked out at 13.9%.

With `C/C(=N\N1CCN(C2c3ccccc3-c3ccccc32)CC1)c1cccnc1`, the “hERG current change (%, negative = inhibition) at 10uM” value is reported as -2.47%.

`CCN(CC)S(=O)(=O)c1ccc2oc(C(=O)N3CCc4ccccc4C3)c(C)c2c1`: the “hERG current change (%, negative = inhibition) at 10uM” value is given as -21.8%.

With `O=C(O)C1CCCN1c1ncnc2ccccc12` (centres unmarked), the “hERG current change (%, negative = inhibition) at 10uM” value stood at 9.37%.

For the molecule `Cc1ccc(N/C(N)=N/c2nc(CSc3nnc(N)s3)cc(=O)[nH]2)cc1`, the “hERG current change (%, negative = inhibition) at 10uM” value was determined as 11.5%.

For the molecule `CC(C)C(NS(=O)(=O)c1ccc2c(c1)Cc1cc(S(=O)(=O)NC(C(=O)O)C(C)C)ccc1-2)C(=O)O` (centres unmarked), the “hERG current change (%, negative = inhibition) at 10uM” value came out at 15.1%.

For `CCCCN(Cc1cc2cc(OC)ccc2[nH]c1=O)C(=O)c1ccco1`, the “hERG current change (%, negative = inhibition) at 10uM” value is -22.4%.

Regarding `Cc1ccc(C(=O)COC(=O)c2ccc(-c3cnc4ccccc4n3)cc2)cc1C`, the “hERG current change (%, negative = inhibition) at 10uM” value was -1.51%.

For the molecule `COc1cc(C(=O)OC(C)CN2CCOCC2)cc(OC)c1OC` (centres unmarked), the “hERG current change (%, negative = inhibition) at 10uM” value came out at 8.78%.

As for `NC(=O)c1ccccc1N=Cc1ccccn1`, the “hERG current change (%, negative = inhibition) at 10uM” value is given as -5.25%.

`COCCn1nnnc1C(C(C)C)N1CCN(C(=O)c2ccco2)CC1.Cl` (centres unmarked): the “hERG current change (%, negative = inhibition) at 10uM” value is -1.29%.

As for `O=c1c(-c2ccc(O)cc2)coc2cc(O)cc(O)c12`, the “hERG current change (%, negative = inhibition) at 10uM” value worked out at 12.8%.

For `COC(=O)c1scc(C)c1NC(=O)C(Cl)c1ccccc1` (centres unmarked), the “hERG current change (%, negative = inhibition) at 10uM” value came out at 8.83%.

For the molecule `CCOC(=O)c1oc2cccc(O)c2c1C`, the “hERG current change (%, negative = inhibition) at 10uM” value is given as -7.22%.

Consider `COC(=O)c1scc(C)c1NC(=O)c1cccc(C#N)c1`, for which the “hERG current change (%, negative = inhibition) at 10uM” value turned out to be 11.2%.

Consider `CCC(/C=N/NC(=O)CCCCC(=O)N/N=C/C(CC)CC)CC`, for which the “hERG current change (%, negative = inhibition) at 10uM” value was determined as 1.36%.

As to `COc1ccc(NS(=O)(=O)c2ccc(N)c(C(=O)O)c2)cc1`, the “hERG current change (%, negative = inhibition) at 10uM” value is 11.9%.

For the molecule `Cc1csc(NC(=O)c2ccc(OCC3CCCO3)cc2)n1` (centres unmarked), the “hERG current change (%, negative = inhibition) at 10uM” value was found to be 9.55%.

Turning to `CCOC(=O)C(C(=O)OCC)C(=O)c1cc(OC)c(OC)c(OC)c1`, the “hERG current change (%, negative = inhibition) at 10uM” value is -16.4%.

As to `Cc1cccc(OCc2nnc(SCC(=O)Nc3sc(C)c(C)c3C#N)n2C)c1`, the “hERG current change (%, negative = inhibition) at 10uM” value is given as 18.9%.

Turning to `O=C(Nc1ccc2c(c1)oc1ccccc12)c1ccncc1`, the “hERG current change (%, negative = inhibition) at 10uM” value stood at 5.01%.

As to `CSCCC(NS(=O)(=O)c1ccc2c(c1)oc(=O)n2C)C(=O)NC1CCN(Cc2ccccc2)CC1` (centres unmarked), the “hERG current change (%, negative = inhibition) at 10uM” value is -7.44%.

Take `CC(=O)c1ccc(N2CCN(c3ccc4cc(S(=O)(=O)N5CCC(C)CC5)ccc4n3)CC2)cc1`: the “hERG current change (%, negative = inhibition) at 10uM” value was found to be 5.23%.

With `O=C(CCC1CCCN(C(=O)CCCc2ccccc2)C1)N1CCN(c2ccccn2)CC1` (centres unmarked), the “hERG current change (%, negative = inhibition) at 10uM” value is -35.2%.

As for `COc1ccccc1N1CCN(CCC(=O)Nc2cccc(Cl)c2)CC1.Cl`, the “hERG current change (%, negative = inhibition) at 10uM” value is on record as -62.8%.

Take `O=C(c1ccccn1)N(Cc1cc2ccccc2[nH]c1=O)C1CCCCC1`: the “hERG current change (%, negative = inhibition) at 10uM” value was -2.49%.

In the case of `Cc1cc(C)cc(NC(=O)C2CCCN2C(=O)Oc2ccccc2)c1` (centres unmarked), the “hERG current change (%, negative = inhibition) at 10uM” value is -10.9%.

Take `CCc1ccccc1NC(=O)C(Cc1ccccc1)c1nn[nH]n1` (centres unmarked): the “hERG current change (%, negative = inhibition) at 10uM” value came to 21.1%.

On to `COc1ccccc1N1C[C@@H]2C[C@@H](c3ccco3)N3CCC[C@@]23C1=O`, for which the “hERG current change (%, negative = inhibition) at 10uM” value worked out at 11.4%.

Turning to `Cc1ccc2nc(SCC(=O)Nc3cc(C(C)(C)C)nn3-c3ccccc3)[nH]c2c1`, the “hERG current change (%, negative = inhibition) at 10uM” value was 3.37%.

Values taken from article PMC4336329 (PLoS ONE, 2015).
